# In the antibiotic and cytotoxicity screens of Wong et al. (2023):
# This is one part of the list.
# Columns and labels:
# HSkMC = human skeletal muscle cells; experiment: cytotoxicity call (relative viability < 0.9); conditions: 10 µM
# HepG2 = experiment: cytotoxicity call (relative viability < 0.9); conditions: 10 µM
# S. aureus RN4220 = experiment: growth inhibition call (relative growth <= 0.2); conditions: 50 µM
Structure (SMILES),cytotoxicity call (HSkMC),cytotoxicity call (HepG2),growth inhibition call (S. aureus RN4220)
COc1ccc(S(=O)(=O)Nc2ccc3c(c2)C(=O)N([C@@H](C)CO)C[C@@H](C)[C@H](CN(C)C(=O)Nc2cccc4ccccc24)OCCCC[C@@H](C)O3)cc1,inactive,inactive,inactive
C[C@H](CO)N1C[C@H](C)[C@H](CN(C)C(=O)Nc2cccc3ccccc23)OCCCC[C@H](C)Oc2ccc(NS(=O)(=O)c3ccc(F)cc3)cc2C1=O,inactive,inactive,inactive
C[C@@H]1CCCCO[C@@H](CN(C)C(=O)Nc2ccc(F)cc2)[C@@H](C)CN([C@@H](C)CO)C(=O)c2cc(NC(=O)Nc3ccccc3)ccc2O1,inactive,inactive,inactive
O=C(c1ccc(S(=O)(=O)N2CCCCCC2)cc1)N(Cc1cccnc1)c1nc2c(F)cc(F)cc2s1,inactive,inactive,inactive
C[C@H]1CN([C@@H](C)CO)C(=O)Cc2cc(NS(=O)(=O)c3ccc(Cl)cc3)ccc2O[C@H]1CN(C)Cc1ccc(-c2ccccc2)cc1,active,active,inactive
COc1ccc(CN(C)C[C@H]2OCCCC[C@@H](C)Oc3ccc(NC(=O)NC4CCCCC4)cc3C(=O)N([C@@H](C)CO)C[C@H]2C)cc1,inactive,inactive,inactive
CC(C)(C)c1ccc2oc(CN)nc2c1,inactive,inactive,inactive
C[C@H](CO)N1C[C@H](C)[C@H](CN(C)S(C)(=O)=O)Oc2ccc(NC(=O)Cc3ccccc3)cc2C1=O,inactive,inactive,inactive
COc1ccc(NC(=O)N(C)C[C@@H]2Oc3ccc(NS(C)(=O)=O)cc3CC(=O)N([C@@H](C)CO)C[C@@H]2C)cc1,inactive,inactive,inactive
C[C@H](CO)N1C[C@H](C)[C@H](CN(C)Cc2ccncc2)Oc2ccc(NC(=O)Nc3cccc4ccccc34)cc2CC1=O,active,active,inactive
COc1ccc(S(=O)(=O)Nc2ccc3c(c2)C(=O)N([C@@H](C)CO)C[C@@H](C)[C@H](CN(C)Cc2ccc(Oc4ccccc4)cc2)O3)cc1,inactive,active,inactive
COc1cc(C2c3cc4c(cc3C(OC3OC5COC(C)OC5C(O)C3O)C3COC(=O)C23)OCO4)cc(OC)c1O (stereo not given),inactive,inactive,inactive
C[C@@H]1CN([C@H](C)CO)C(=O)c2cccc(NC(=O)C3CCCCC3)c2O[C@H]1CN(C)Cc1ccc(C(F)(F)F)cc1,inactive,inactive,inactive
C[C@@H]1CN([C@H](C)CO)S(=O)(=O)c2ccc(Br)cc2O[C@@H]1CN(C)C(=O)CN1CCOCC1,inactive,inactive,inactive
C[C@H](CO)N1C[C@H](C)[C@H](CN(C)C(=O)Nc2ccc(F)cc2)OCCCC[C@H](C)Oc2ccc(NC(=O)Nc3ccccc3)cc2C1=O,inactive,inactive,inactive
C[C@@H]1CN([C@H](C)CO)C(=O)c2cc(NC(=O)CCCN(C)C)ccc2O[C@@H]1CN(C)S(=O)(=O)c1ccccc1,inactive,inactive,inactive
O=C(CCCCCNC(=O)OCc1ccc(CO[C@H]2C[C@@H](c3ccc4c(c3)OCO4)C=C(C(=O)N3CCOCC3)O2)cc1)NO,inactive,inactive,inactive
C[C@H](CO)N1C[C@H](C)[C@H](CN(C)C(=O)c2ccccc2)Oc2cc(Br)ccc2S1(=O)=O,inactive,inactive,inactive
C=C(C1=CCN(S(=O)(=O)c2ccc(C)cc2)C1)[C@@H](OC(C)=O)[C@@H]1CCCN1S(=O)(=O)c1ccccc1[N+](=O)[O-],inactive,inactive,inactive
C[C@@H]1CN([C@@H](C)CO)C(=O)Cc2cc(NS(=O)(=O)c3cccs3)ccc2O[C@H]1CN(C)C(=O)Nc1cccc2ccccc12,inactive,inactive,inactive
COc1cccc(-c2cn(CC[C@H]3CC[C@@H](NC(=O)CN(C)C)[C@H](CO)O3)nn2)c1,inactive,inactive,inactive
Cc1noc(C)c1S(=O)(=O)Nc1ccc2c(c1)C(=O)N([C@H](C)CO)C[C@@H](C)[C@@H](CN(C)C(=O)Nc1ccc(C(F)(F)F)cc1)OCCCC[C@@H](C)O2,inactive,active,inactive
Cc1cccc(OC[C@@H](O)CN)c1,inactive,inactive,inactive
C[C@@H]1CN([C@@H](C)CO)C(=O)Cc2cc(NS(C)(=O)=O)ccc2O[C@H]1CN(C)C,inactive,inactive,inactive
CN(C)CC#Cc1ccc([C@@H]2[C@@H](CO)N3CCCCN(C(=O)CN(C)C)C[C@@H]23)cc1,inactive,inactive,inactive
Cc1noc(C)c1NC(=O)Nc1ccc2c(c1)C(=O)N([C@@H](C)CO)C[C@@H](C)[C@@H](CN(C)Cc1ccc(Oc3ccccc3)cc1)O2,inactive,inactive,inactive
OCC(O)C(O)C(O)C(O)C(O)CO (stereo not given),inactive,inactive,inactive
O=S1(=O)N[C@H]2CCCN2c2ccccc21,inactive,inactive,inactive

Structure (SMILES),cytotoxicity call (HSkMC),cytotoxicity call (HepG2),growth inhibition call (S. aureus RN4220)
C[C@H]1CN([C@@H](C)CO)C(=O)c2cc(NC(=O)CCCN(C)C)ccc2O[C@H]1CN(C)S(=O)(=O)c1ccc(F)cc1,inactive,inactive,inactive
COc1ccc(S(=O)(=O)Nc2ccc3c(c2)C(=O)N([C@H](C)CO)C[C@@H](C)[C@H](CN(C)Cc2ccc4c(c2)OCO4)OCCCC[C@H](C)O3)cc1,inactive,inactive,inactive
CNC[C@@H]1OCCCC[C@@H](C)Oc2ccc(NC(=O)Nc3ccc(C(F)(F)F)cc3)cc2C(=O)N([C@H](C)CO)C[C@H]1C,inactive,inactive,inactive
C[C@@H]1CN([C@@H](C)CO)C(=O)c2cc(NC(=O)Nc3ccc(F)cc3)ccc2O[C@@H](C)CCCCO[C@@H]1CN(C)C(=O)Cc1ccccc1,inactive,inactive,inactive
CO[C@@H](CN(C)C(=O)c1ccc2c(c1)OCO2)[C@@H](C)CN([C@H](C)CO)S(=O)(=O)c1ccc(Cl)cc1,inactive,inactive,inactive
C[C@@H]1CN([C@H](C)CO)C(=O)CCCn2cc(nn2)CO[C@@H]1CN(C)C(=O)Nc1ccccc1C(F)(F)F,inactive,active,inactive
C[C@@H]1CN([C@H](C)CO)C(=O)Cc2cc(NC(=O)Nc3ccc4c(c3)OCO4)ccc2O[C@@H]1CN(C)Cc1ccc(Cl)c(Cl)c1,active,inactive,inactive
C[C@H](CO)N1C[C@H](C)[C@H](CN(C)C(=O)Nc2cccc3ccccc23)Oc2c(NS(=O)(=O)c3ccc(Cl)cc3)cccc2C1=O,inactive,inactive,inactive
NCc1cccc(-c2ccco2)c1,inactive,inactive,inactive
CC12C=CC(=O)C=C1CCC1C2C(O)CC2(C)C1CCC2(O)C(=O)CO (stereo not given),inactive,inactive,inactive
COCCNC(=O)C[C@H]1CC[C@H]2[C@H](COc3ccc(NS(=O)(=O)c4ccc(Cl)cc4)cc3C(=O)N2C)O1,inactive,inactive,inactive
Nc1nc(F)nc2c1ncn2[C@@H]1O[C@H](CO)[C@@H](O)[C@H]1O,active,active,inactive
C[C@@H]1CN([C@H](C)CO)C(=O)c2cc(NC(=O)C3CC3)ccc2O[C@H]1CN(C)S(=O)(=O)c1cn(C)cn1,inactive,inactive,inactive
C[C@@H]1CN([C@@H](C)CO)S(=O)(=O)c2ccc(C#CCN(C)C)cc2O[C@H]1CN(C)S(=O)(=O)c1cccc(F)c1,inactive,inactive,inactive
C[C@@H]1CN([C@@H](C)CO)C(=O)c2cc(NC(=O)Nc3cccc4ccccc34)ccc2O[C@@H]1CN(C)S(=O)(=O)c1cccs1,inactive,inactive,inactive
COc1ccc(S(=O)(=O)N(C)C[C@@H]2Oc3c(NC(=O)C4CCOCC4)cccc3C(=O)N([C@@H](C)CO)C[C@@H]2C)cc1,inactive,inactive,inactive
CO[C@@H]1CN(C)C(=O)c2cc(NC(=O)c3ccccc3)ccc2OC[C@@H](C)N(C(=O)CN(C)C)C[C@@H]1C,inactive,inactive,inactive
C[C@@H]1CCCCO[C@H](CN(C)Cc2ccc3c(c2)OCO3)[C@H](C)CN([C@@H](C)CO)C(=O)c2cc(NS(=O)(=O)c3ccc(F)cc3)ccc2O1,inactive,inactive,inactive
C[C@H]1CN([C@@H](C)CO)C(=O)c2c(c3ccccc3n2C)-c2ccccc2CO[C@H]1CN(C)C(=O)NC1CCCCC1,inactive,inactive,inactive
Cc1ccc(S[C@]2(C(=O)NCc3ccccc3)CC(=O)N(Cc3ccccc3)[C@@H]2c2ccc(COC(=O)NCCCCCC(=O)NO)cc2I)cc1,inactive,inactive,inactive
COc1ccc(S(=O)(=O)N(C)C[C@@H]2Oc3ccc(NS(=O)(=O)c4ccc(C)cc4)cc3C(=O)N([C@@H](C)CO)C[C@H]2C)cc1,inactive,inactive,inactive
COc1ccc(-c2cnc3c(c2)C(=O)N([C@@H](C)CO)C[C@H](C)[C@@H](CN(C)C(=O)Cc2ccncc2)O3)cc1,inactive,inactive,inactive
O=C(N[C@H]1C=C[C@H](CC(=O)N2CCOCC2)O[C@@H]1CO)c1ccc2c(c1)OCO2,inactive,inactive,inactive
COc1ccc(S(=O)(=O)N(C)C[C@H]2Oc3ccc(NC(=O)C4CC4)cc3CC(=O)N([C@@H](C)CO)C[C@H]2C)cc1,inactive,inactive,inactive
C[C@@H]1CN([C@H](C)CO)C(=O)c2c(c3ccccc3n2C)-c2ccccc2CO[C@@H]1CN(C)C(=O)Nc1ccccc1,inactive,inactive,inactive
COc1ccc(NC(=O)N(C)C[C@H]2Oc3ccc(NS(C)(=O)=O)cc3C(=O)N([C@H](C)CO)C[C@H]2C)cc1,inactive,inactive,inactive
CCS(=O)(=O)NCC[C@H]1CC[C@H](NC(=O)C2CC2)[C@H](CO)O1,inactive,inactive,inactive
